# Some of the results follow.
# Target: T1, OsWOX13 (Oryza sativa, UniProt Q5QMM3 1-267)
# T1 sequence: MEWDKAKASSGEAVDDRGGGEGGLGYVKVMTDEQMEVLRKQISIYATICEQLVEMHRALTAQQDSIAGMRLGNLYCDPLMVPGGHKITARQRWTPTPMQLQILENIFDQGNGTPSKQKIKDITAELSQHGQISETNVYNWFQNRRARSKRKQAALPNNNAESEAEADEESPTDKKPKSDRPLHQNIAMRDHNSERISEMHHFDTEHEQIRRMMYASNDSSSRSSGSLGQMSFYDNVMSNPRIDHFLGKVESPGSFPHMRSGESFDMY
# Test: protein-binding microarray (RPBM); PBS, 2% BSA, 51.3 ng/ul salmon testes DNA, 50 uM zinc acetate, 200 nM TF, 25 C, 1 h; high values mean tight binding
# Details: protein: recombinant; tags: N-terminal polyhistidine and DsRed monomer fusion (pET32a); label: CyDye5-dUTP incorporated in the synthesized complementary strand; 3' TTTTT single-stranded linker to array surface; dsDNA, one strand shown
# Method in brief: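 An Axon 4000B scanner gave the binding signal as per-feature fluorescence intensity in arbitrary units. This followed washing of a custom Agilent array that had been incubated for 1 h at 25 °C with 200 nM protein in PBS, 2% BSA, salmon testes DNA and 50 µM zinc acetate. The proteins were transcription factors fused at the N-terminus to polyhistidine and DsRed, expressed in E. coli BL21-CodonPlus and purified on Ni–NTA.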
row,Sequence,binding signal
1,GAATTGATCAATGCTCATCACTGTCACTTGAGAACAGATGCGGAGTCACCTAGTGCAG,4400 fluorescence intensity (a.u.)
2,ATTCATAAATTAATTTTCGTTGCTTTCTTCATTTTATTGTCGGAGTCACCTAGTGCAG,25100 fluorescence intensity (a.u.)
3,AAATTAATGATATATTCACATCGTGAAACAAAGTGATGTTCGGAGTCACCTAGTGCAG,6540 fluorescence intensity (a.u.)
4,GATAATTTTGCTGAGTTATGTACTTATGTAACACCTTTTGCGGAGTCACCTAGTGCAG,12100 fluorescence intensity (a.u.)
5,TCTAAATTTAACTTGCATCACATTAGTTCTGGAAAGAGCACGGAGTCACCTAGTGCAG,12200 fluorescence intensity (a.u.)
6,CTGTGACTAGTCACGTCCATATCATAAATTAGAGTTGTACCGGAGTCACCTAGTGCAG,3800 fluorescence intensity (a.u.)
7,CTATCAGAATAAATCAATTGTTAACCATGTATGGAGTATCCGGAGTCACCTAGTGCAG,3580 fluorescence intensity (a.u.)
8,TATGGTAACAGGCCTGATAGGTTACTTTGTGCATTGAGAACGGAGTCACCTAGTGCAG,4170 fluorescence intensity (a.u.)
9,GAAATAAATAAACTGGAGTAGTAATAGAGAGATTAGACCACGGAGTCACCTAGTGCAG,5730 fluorescence intensity (a.u.)
10,CCTGATTTCCTCCTTTCAGTGAAGTGTTAAACCCTAGCTACGGAGTCACCTAGTGCAG,21500 fluorescence intensity (a.u.)
11,CTGAAAATTATTGAGTTTTCAGATTAAGTGGTGGGTGTGCCGGAGTCACCTAGTGCAG,8550 fluorescence intensity (a.u.)
12,CATAATTGAGGGGCCCGACTTATTCCCGCACGTGGCCGTACGGAGTCACCTAGTGCAG,41600 fluorescence intensity (a.u.)
13,GTTCGATGTGACAGGGTGCAAAATTTCGGGGTGGGATCTACGGAGTCACCTAGTGCAG,3610 fluorescence intensity (a.u.)
14,ACATATAAATACTAAATTATCATTCACAAATCATTTTCATCGGAGTCACCTAGTGCAG,4400 fluorescence intensity (a.u.)
15,ATATAATGTTGATTGGAGTGCGTGCGAAGAATGTGAGTTTCGGAGTCACCTAGTGCAG,25200 fluorescence intensity (a.u.)
16,TGAAATAATAATTATTCAAATAATTATACGCTAATGGCTCCGGAGTCACCTAGTGCAG,15700 fluorescence intensity (a.u.)
17,TATTCTCTATCCAACAAATCAATTAAACATGCCATGACTTCGGAGTCACCTAGTGCAG,5480 fluorescence intensity (a.u.)
18,CGTACACCAATCACACCGGAGCCCTCTCACCAATGGTTCTCGGAGTCACCTAGTGCAG,9330 fluorescence intensity (a.u.)
19,GTGTTGATTAAAATTGATGATTAATTACTCTACTGTTTTACGGAGTCACCTAGTGCAG,27100 fluorescence intensity (a.u.)
20,AACATCAAAATTTAATAGGATTGGCGAAGTGGGCATAGCTCGGAGTCACCTAGTGCAG,4910 fluorescence intensity (a.u.)
21,GGGGACATAAATCCTGATGATTTCCTCAACTTTGATCTTGCGGAGTCACCTAGTGCAG,3630 fluorescence intensity (a.u.)

row,Sequence,binding signal
1,GGATGATGCATCGCTGTGATTGCCTTATTGGAGATGAACACGGAGTCACCTAGTGCAG,13500 fluorescence intensity (a.u.)
2,ATATGCTAAATTATCTGCCTGCATGATCATTGAACGCAATCGGAGTCACCTAGTGCAG,4080 fluorescence intensity (a.u.)
3,ACGCCCCATCTTAATTATATATAACAGTGAGCTATATTTTCGGAGTCACCTAGTGCAG,5530 fluorescence intensity (a.u.)
4,ATTAAAACTTAATTAATCATACGTTAATATCAACTCATTTCGGAGTCACCTAGTGCAG,8390 fluorescence intensity (a.u.)
5,CCACGTAATCTGATTTGGTTATACAAACGTGTTGCCACACCGGAGTCACCTAGTGCAG,9390 fluorescence intensity (a.u.)
6,AATGACGGATTAATTAGGCTTAATAAACTCGTCTCGTGGTCGGAGTCACCTAGTGCAG,43200 fluorescence intensity (a.u.)
7,TTAAAACTCAATTAATCGTACGTTAATAACACCTCGTTTTCGGAGTCACCTAGTGCAG,11900 fluorescence intensity (a.u.)
8,TGTAATTGACATAAGTAGACATGTGAGCCAGCTTTGGTTGCGGAGTCACCTAGTGCAG,38900 fluorescence intensity (a.u.)
9,TCTTAGATTAGTGGTTAGTCCGTTCAGAAATCAGACTTGACGGAGTCACCTAGTGCAG,6140 fluorescence intensity (a.u.)
10,AAACGAATAAATTGAATATTAGTAAGTTGATAAGGTGATACGGAGTCACCTAGTGCAG,13800 fluorescence intensity (a.u.)
11,TTCCTATTTATTTAACTCAATTTCGTGGGACATACCTAACCGGAGTCACCTAGTGCAG,3530 fluorescence intensity (a.u.)
12,AGAAATTTTAAAGGATTGGATAGGATTCAATCCTTTGTTTCGGAGTCACCTAGTGCAG,4800 fluorescence intensity (a.u.)
13,CCCTTAATTAATTAAAACCGGTCACAGTATGTCCTTTAATCGGAGTCACCTAGTGCAG,41300 fluorescence intensity (a.u.)
14,CAGAGCAGGTTGATTTATTCCCACAATAATCCAAGCTCCACGGAGTCACCTAGTGCAG,3350 fluorescence intensity (a.u.)
15,CCTCTTGATTTACCCTGTCATATATAAATAAGAAATGCAACGGAGTCACCTAGTGCAG,33800 fluorescence intensity (a.u.)
16,GATGTCAGCTGTCACCTCAGTAATTACCAAATAAGAACAGCGGAGTCACCTAGTGCAG,5640 fluorescence intensity (a.u.)
17,GACTACTTGATTTTGTTTATGGTATTTCATCTGAAAATACCGGAGTCACCTAGTGCAG,3850 fluorescence intensity (a.u.)
18,ATGTAATATGGGTGATTTATACTCTCTCCGTTTCAACTTACGGAGTCACCTAGTGCAG,3850 fluorescence intensity (a.u.)
19,CGCCCTTTGACCCAACAGCCAACAGGTGGTGTAGTGACTACGGAGTCACCTAGTGCAG,8500 fluorescence intensity (a.u.)
20,ATTAATTAAGTTTTAATTGTTACAAACTTGACAAATAAATCGGAGTCACCTAGTGCAG,18700 fluorescence intensity (a.u.)
21,GGAGAGATTGATTAGCGGGAGGAGGAACTCGAGGAGACAGCGGAGTCACCTAGTGCAG,35100 fluorescence intensity (a.u.)

# From article PMC7819943, “Rice protein-binding microarrays: a tool to detect cis-acting elements near promoter regions in rice”
